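Step 1: Grow cells in 96-well plates. Step 2: Expose to compound for 48 hours at 5 concentrations. Step 3: Interpolate endpoints linearly; if unreached, use highest concentration. Here, GI50 denotes the concentration required for 50% inhibition of growth. TGI is the concentration that stops growth completely.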
System: NCI-H322M lung
Assay: DTP human tumour cell line panel, 48 h

Compound	TGI	GI50
OCc1c2c(cc3c1CC1(C3)Cc3cc4c(c(CO)c3C1)CCC4)CCC2	38.5 µM	
Nc1nc2cc(CNc3ccc(C(=O)O)cc3)ccc2nc1-c1ccccc1	> 100 µM	
Fc1ccc(C2NC(=S)NC3=C2CCOc2c3ccc3ccccc23)cc1 (stereo not given)	> 100 µM	
O=c1[nH]nc(Cc2ccccc2)n1/N=C/c1ccc([N+](=O)[O-])o1	20.7 µM	
CC1(C)COCN1COC1CCCCC1	> 100 µM	
C=C(C)[C@@H]1CC[C@]2(CO)CC[C@]3(C)[C@H](CC[C@@H]4[C@@]5(C)CC[C@H](O)C(C)(C)[C@@H]5CC[C@]43C)[C@@H]12	25.5 µM	
CCN1C(=O)N(CC)C2C1NN=c1s/c(=C3\C(=O)N(CC(C)C)c4ccccc43)c(=O)n12 (stereo not given)	> 100 µM	1.65 µM
O=C1CSC(c2cccc(Cl)c2)N1c1c(O)c(Cl)cc(Br)c1Cl (stereo not given)	> 100 µM	
COc1ccc(C[C@H]2NC(=O)/C=C/C[C@@H]([C@H](C)[C@H]3O[C@@H]3c3ccccc3)OC(=O)[C@H](CC(C)C)OC(=O)[C@H](C)CNC2=O)cc1	> 7.91e-05 µM	
S=c1nc(Oc2ccc(Cl)c(Cl)c2)[nH]c(=S)[nH]1	74.3 µM	
C=C1CC[C@@]2(C#N)[C@H]3[C@H](CC[C@@H]2C)[C@@H](C)C[C@@H](CC(C)(C)C#N)[C@H]13	31 µM	4.32 µM
Cn1nc(-c2ccccc2)c(N=[N+]=[N-])cc1=O	> 100 µM	
CC1(C)OC[C@@H]([C@@]2(CO[Si](C)(C)C(C)(C)C)CC=CC(=O)O2)O1	66.3 µM	21.5 µM
CN(C)Cc1cc(C(C)(C)C)cc(CNC2CCCCC2)c1O	> 100 µM	
C=CC[C@H]1C[C@@]2(C)OC[C@H](C(C)C)N2C1=O	> 100 µM	
N#CN=C1c2ccccc2C(=NC#N)c2cc(CO)ccc21	> 100 µM	
C/C=C(\C)C(=O)N[C@H]1[C@@H](OC(C)=O)C[C@]2(C)C3CC[C@@]4(C)C(CC[C@@H]4C(C)N(C)C)C3CCC2[C@H]1O (stereo not given in full)	19.8 µM	5.34 µM
C=C(Cl)COC(=O)Nc1cccc(Cl)c1	> 100 µM	
FC(F)(F)c1cccc(COCCN2CCN(Cc3cccc(C(F)(F)F)c3)CC2)c1	32.7 µM	
O=C(/C=C/C=C/c1ccccc1)CCc1ccccc1	> 100 µM	
COc1ccc(C2c3cc4c(cc3OC(NNC(N)=O)C2C)OCO4)cc1 (stereo not given)	> 77.1 µM	
O=C(O)CCC(C(=O)O)N1C(=O)c2ccccc2C1=O (stereo not given)	> 100 µM	

Compound	TGI	GI50
C[C@]12CC[C@H](O)CC1=CC[C@@H]1C2CC[C@]2(C)c3nn(-c4ccc(F)cc4)nc3CC12 (stereo not given in full)	> 100 µM	
COC(=O)C1=C(O)C(C(=O)OC)[C@]2(O)[C@H](C(=O)OC)[C@H]1C[C@@H](c1cccc(OC)c1)[C@H]2C(=O)OC (stereo not given in full)	92.9 µM	
COC(=O)/C=C(C)/C=C/c1cc(C(C)=O)c(C)o1	> 100 µM	
[N-]=[N+]=C(C(=O)OCC#CCOC(=O)C(=[N+]=[N-])S(=O)(=O)c1ccccc1)S(=O)(=O)c1ccccc1	> 10 µM	
CCOC(=O)Cc1csc(/N=C2\NC(=O)/C(=C3\C(=O)N(C)c4ccccc43)S2)n1	80.4 µM	22.9 µM
COc1ccc(/C=C2\Sc3nnc(C)n3N=C2c2cc(F)c(Cl)cc2Cl)cc1OC	31.9 µM	
O=C(Nc1ccccc1)c1cc(S(=O)(=O)Nc2n[nH]c(=O)[nH]2)c(SSc2cc(Cl)c(C(=O)Nc3ccccc3)cc2S(=O)(=O)Nc2n[nH]c(=O)[nH]2)cc1Cl	> 100 µM	
c1nncn1C12C3C4C5C3C1C5C42 (stereo not given)	> 100 µM	
Cc1nc2c(=O)[nH]c(=O)n(C)c2[nH]c1=O	> 100 µM	
NCCCC(=O)Nc1ccncc1	> 100 µM	> 100 µM
CN1[C@@H]2CCCC[C@H]2N(C)P1(=O)C(O)/C=C/c1ccccc1 (stereo not given in full)	> 100 µM	
COc1ccc2c(c1)c(=O)c1c(NCCCN(C)CCCNc3ccc4c(=O)n(CCN(C)C)c(=O)n5c6ccc(OC)cc6c(=O)c3c45)ccc3c(=O)n(CCN(C)C)c(=O)n2c31	2.83 µM	
CCCN=C1Nc2ccccc2[C@@H]2N(C)c3ccccc3C(C)C[C@]12C (stereo not given in full)	50.7 µM	
COc1ccc(C2=NN(C(=O)COc3ccc(Cl)cc3)C(O)(c3cc(F)c(Cl)cc3Cl)C2)cc1OC (stereo not given)	30.3 µM	15.7 µM
O=C1CCCCCCCC/C=C/CCC(c2ccco2)O1 (stereo not given)	> 100 µM	10.8 µM
CC(/C=N/N(C)C1=NCCCCN1)=N/N(C)C1=NCCCCN1	> 100 µM	
CC([C@H]1CCC2C3CCC4C[C@@H](NC=O)CC[C@]4(C)C3CC[C@@]21C)N(C)C (stereo not given in full)	8.83 µM	2.74 µM
COc1cc(C(=O)O[C@H](C(=O)NCCNC(=O)[C@@H](OC(=O)c2cc(OC)cc3c(C)cccc23)[C@]2(C)CO2)[C@]2(C)CO2)c2cccc(C)c2c1	1.97 µM	0.707 µM
O=S(=O)(O)c1ccc2c(N=Nc3ccccc3)c(O)c(S(=O)(=O)O)cc2c1	> 100 µM	
O=C(Nc1ccc(-n2cc(-c3ccncc3)c(-c3ccc(O)c(Cl)c3)n2)cc1)c1cc(Cl)cc(Cl)c1	> 32.5 µM	> 32.5 µM
c1ccc2[nH]c(SSc3nc4ncncc4[nH]3)nc2c1	> 79.4 µM	1.9 µM
